# Laboratory results published in the supplement of paper PMC8728848.
# The list shows a part of the results.
# B1: Langerin (Homo sapiens), Q9UJ71 (protein)
# chain: STLNAQIPELKSDLEKASALNTKIRALQGSLENMSKLLKRQNDILQVVSQGWKYFKGNFYYFSLIPKTWYSAEQFCVSRNSHLTSVTSESEQEFLYKTAGGLIYWIGLTKAGMEGDWSWVDDTPFNKVQSARFWIPGEPNDAGNNEHCGNIKAPSLQAWNDAPCDITFLFICKRPYVPSEP
# Key:
# Assay in all cases: glycan array binding signal (z-score within array); higher = stronger binding
# Conditions in all cases: glycan notation: IUPAC condensed, linker removed; mutation: N288D, K313I
# [1] = target: Fuc(a1-2)[Gal(a1-3)]Gal(b1-4)GlcNAc(b1-2)Man(a1-3)[Fuc(a1-2)[Gal(a1-3)]Gal(b1-4)GlcNAc(b1-2)Man(a1-6)]Man(b1-4)GlcNAc(b1-4)GlcNAc
# In short: (§1)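 Columns mapping to the same glycan were averaged after glycan names were converted to IUPAC-condensed notation. The data come from 3228 arrays in the Consortium for Functional Glycomics database, limited to those with an available protein sequence. Binding is reported as a within-array Z-score averaged across arrays of one protein sequence and across linkers.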
# [2] = target: Fuc(a1-2)[Gal(a1-3)]Gal(b1-4)GlcNAc(b1-2)Man(a1-3)[Fuc(a1-2)[Gal(a1-3)]Gal(b1-4)GlcNAc(b1-2)Man(a1-6)]Man(b1-4)GlcNAc(b1-4)[Fuc(a1-6)]GlcNAc
# In short: as §1
# [3] = target: Fuc(a1-2)[Gal(a1-3)]Gal(b1-4)GlcNAc(b1-3)GalNAc
# In short: as §1
# [4] = target: Fuc(a1-2)[Gal(a1-3)]Gal(b1-4)GlcNAc(b1-3)[Fuc(a1-2)[Gal(a1-3)]Gal(b1-4)GlcNAc(b1-6)]GalNAc
# In short: as §1
# [5] = target: Fuc(a1-2)[Gal(a1-3)]Gal(b1-4)GlcNAc(b1-6)GalNAc
# In short: as §1
# [6] = target: Fuc(a1-2)[Gal(a1-3)]Gal(b1-4)[Fuc(a1-3)]Glc
# In short: as §1
# [7] = target: Fuc(a1-2)[Gal(a1-3)]Gal(b1-4)[Fuc(a1-3)]GlcNAc
# In short: as §1
# [8] = target: Fuc(a1-2)[Gal(a1-3)]Gal(b1-4)[Fuc(a1-3)]GlcNAc(b1-3)GalNAc
# In short: as §1
# [9] = target: Fuc(a1-2)[Gal(a1-4)]Gal(b1-4)GlcNAc
# In short: as §1
# [10] = target: Fuc(a1-2)[GalNAc(a1-3)]Gal
# In short: as §1
# [11] = target: Fuc(a1-2)[GalNAc(a1-3)]Gal(b1-3)GalNAc(a1-3)[Fuc(a1-2)]Gal(b1-4)GlcNAc
# In short: as §1
# [12] = target: Fuc(a1-2)[GalNAc(a1-3)]Gal(b1-3)GalNAc(b1-3)Gal(a1-4)Gal(b1-4)Glc
# In short: as §1
# [13] = target: Fuc(a1-2)[GalNAc(a1-3)]Gal(b1-3)GlcNAc
# In short: as §1
# [14] = target: Fuc(a1-2)[GalNAc(a1-3)]Gal(b1-3)GlcNAc(b1-2)Man(a1-3)[Fuc(a1-2)[GalNAc(a1-3)]Gal(b1-3)GlcNAc(b1-2)Man(a1-6)]Man(b1-4)GlcNAc(b1-4)GlcNAc
# In short: as §1
# [15] = target: Fuc(a1-2)[GalNAc(a1-3)]Gal(b1-3)GlcNAc(b1-2)Man(a1-3)[Fuc(a1-2)[GalNAc(a1-3)]Gal(b1-3)GlcNAc(b1-2)Man(a1-6)]Man(b1-4)GlcNAc(b1-4)[Fuc(a1-6)]GlcNAc
# In short: as §1
# [16] = target: Fuc(a1-2)[GalNAc(a1-3)]Gal(b1-3)GlcNAc(b1-3)GalNAc
# In short: as §1
# [17] = target: Fuc(a1-2)[GalNAc(a1-3)]Gal(b1-3)GlcNAc(b1-6)GalNAc
# In short: as §1
# [18] = target: Fuc(a1-2)[GalNAc(a1-3)]Gal(b1-4)Glc
# In short: as §1
# [19] = target: Fuc(a1-2)[GalNAc(a1-3)]Gal(b1-4)GlcNAc
# In short: as §1
# [20] = target: Fuc(a1-2)[GalNAc(a1-3)]Gal(b1-4)GlcNAc(b1-2)Man
# In short: as §1
# [21] = target: Fuc(a1-2)[GalNAc(a1-3)]Gal(b1-4)GlcNAc(b1-2)Man(a1-3)[Fuc(a1-2)[GalNAc(a1-3)]Gal(b1-4)GlcNAc(b1-2)Man(a1-6)]Man(b1-4)GlcNAc(b1-4)GlcNAc
# In short: as §1
# [22] = target: Fuc(a1-2)[GalNAc(a1-3)]Gal(b1-4)GlcNAc(b1-2)Man(a1-3)[Fuc(a1-2)[GalNAc(a1-3)]Gal(b1-4)GlcNAc(b1-2)Man(a1-6)]Man(b1-4)GlcNAc(b1-4)[Fuc(a1-6)]GlcNAc
# In short: as §1
# [23] = target: Fuc(a1-2)[GalNAc(a1-3)]Gal(b1-4)GlcNAc(b1-3)Gal(b1-4)GlcNAc
# In short: as §1
# [24] = target: Fuc(a1-2)[GalNAc(a1-3)]Gal(b1-4)GlcNAc(b1-3)Gal(b1-4)GlcNAc(b1-3)Gal(b1-4)GlcNAc
# In short: as §1
# [25] = target: Fuc(a1-2)[GalNAc(a1-3)]Gal(b1-4)GlcNAc(b1-3)GalNAc
# In short: as §1
# [26] = target: Fuc(a1-2)[GalNAc(a1-3)]Gal(b1-4)GlcNAc(b1-3)[Fuc(a1-2)[GalNAc(a1-3)]Gal(b1-4)GlcNAc(b1-6)]GalNAc
# In short: as §1
# [27] = target: Fuc(a1-2)[GalNAc(a1-3)]Gal(b1-4)GlcNAc(b1-6)GalNAc
# In short: as §1
# [28] = target: Fuc(a1-2)[GalNAc(a1-3)]Gal(b1-4)[Fuc(a1-3)]GlcNAc
# In short: as §1
# [29] = target: Fuc(a1-2)[GalNAc(a1-3)]Gal(b1-4)[Fuc(a1-3)]GlcNAc(b1-3)GalNAc
# In short: as §1
# [30] = target: Fuc(a1-2)[GalNAc(a1-4)]Gal(b1-4)GlcNAc
# In short: as §1
# [31] = target: Fuc(a1-2)[GalNAc(b1-3)]Gal
# In short: as §1
# [32] = target: Fuc(a1-3)GlcNAc
# In short: as §1
# [33] = target: Fuc(a1-3)[Gal(b1-4)]Glc6S
# In short: as §1
# [34] = target: Fuc(a1-3)[Gal(b1-4)]GlcNAc
# In short: as §1
# [35] = target: Fuc(a1-3)[Gal(b1-4)]GlcNAc(b1-2)Man
# In short: as §1
# [36] = target: Fuc(a1-3)[Gal(b1-4)]GlcNAc(b1-2)Man(a1-3)[Fuc(a1-3)[Gal(b1-4)]GlcNAc(b1-2)Man(a1-6)]Man(b1-4)GlcNAc(b1-4)GlcNAc
# In short: as §1
# [37] = target: Fuc(a1-3)[Gal(b1-4)]GlcNAc(b1-2)Man(a1-3)[Fuc(a1-3)[Gal(b1-4)]GlcNAc(b1-2)Man(a1-6)]Man(b1-4)GlcNAc(b1-4)[Fuc(a1-6)]GlcNAc
# In short: as §1
# [38] = target: Fuc(a1-3)[Gal(b1-4)]GlcNAc(b1-3)Gal(b1-3)[Fuc(a1-4)]GlcNAc
# In short: as §1
# [39] = target: Fuc(a1-3)[Gal(b1-4)]GlcNAc(b1-3)Gal(b1-4)[Fuc(a1-3)]GlcNAc
# In short: as §1
# [40] = target: Fuc(a1-3)[Gal(b1-4)]GlcNAc(b1-3)Gal(b1-4)[Fuc(a1-3)]GlcNAc(b1-3)Gal(b1-4)[Fuc(a1-3)]GlcNAc
# In short: as §1
# [41] = target: Fuc(a1-3)[Gal(b1-4)]GlcNAc(b1-3)GalNAc
# In short: as §1
# [42] = target: Fuc(a1-3)[Gal(b1-4)]GlcNAc(b1-6)GalNAc
# In short: as §1
# [43] = target: Fuc(a1-3)[Gal(b1-4)]GlcNAc(b1-6)[Gal(b1-3)GlcNAc(b1-3)]Gal(b1-4)Glc
# In short: as §1
# [44] = target: Fuc(a1-3)[Gal(b1-4)]GlcNAc6S
# In short: as §1
# [45] = target: Fuc(a1-3)[Gal3S(b1-4)]Glc
# In short: as §1
# [46] = target: Fuc(a1-3)[Gal3S(b1-4)]GlcNAc
# In short: as §1
# [47] = target: Fuc(a1-3)[Gal3S(b1-4)]GlcNAc6S
# In short: as §1
# [48] = target: Fuc(a1-3)[GalNAc(b1-4)]GlcNAc
# In short: as §1
# [49] = target: Fuc(a1-3)[GalNAc(b1-4)]GlcNAc6S
# In short: as §1
# [50] = target: Fuc(a1-4)GlcNAc
# In short: as §1
# [51] = target: Fuc(b1-3)GlcNAc
# In short: as §1
# [52] = target: Gal(a1-2)Gal
# In short: as §1
# [53] = target: Gal(a1-3)Gal
# In short: as §1
# [54] = target: Gal(a1-3)Gal(b1-3)GlcNAc
# In short: as §1
# [55] = target: Gal(a1-3)Gal(b1-3)GlcNAc(b1-2)Man
# In short: as §1
# [56] = target: Gal(a1-3)Gal(b1-3)GlcNAc(b1-2)Man(a1-3)[Gal(a1-3)Gal(b1-3)GlcNAc(b1-2)Man(a1-6)]Man(b1-4)GlcNAc(b1-4)GlcNAc
# In short: as §1
# [57] = target: Gal(a1-3)Gal(b1-3)GlcNAc(b1-3)GalNAc
# In short: as §1
# [58] = target: Gal(a1-3)Gal(b1-3)GlcNAc(b1-6)GalNAc
# In short: as §1
# [59] = target: Gal(a1-3)Gal(b1-3)[Fuc(a1-4)]GlcNAc(b1-2)Man(a1-3)[Gal(a1-3)Gal(b1-3)[Fuc(a1-4)]GlcNAc(b1-2)Man(a1-6)]Man(b1-4)GlcNAc(b1-4)GlcNAc
# In short: as §1
# [60] = target: Gal(a1-3)Gal(b1-4)Glc
# In short: as §1
binder,measurement,setting,value
B1,glycan array binding signal (z-score),[1],-0.167
same,glycan array binding signal (z-score),[2],0.285
same,glycan array binding signal (z-score),[3],-0.034
same,glycan array binding signal (z-score),[4],-0.12
same,glycan array binding signal (z-score),[5],-0.17
same,glycan array binding signal (z-score),[6],-0.106
same,glycan array binding signal (z-score),[7],-0.073
same,glycan array binding signal (z-score),[8],-0.028
same,glycan array binding signal (z-score),[9],-0.02
same,glycan array binding signal (z-score),[10],0.334
same,glycan array binding signal (z-score),[11],-0.188
same,glycan array binding signal (z-score),[12],-0.197
same,glycan array binding signal (z-score),[13],-0.137
same,glycan array binding signal (z-score),[14],-0.253
same,glycan array binding signal (z-score),[15],0.337
same,glycan array binding signal (z-score),[16],0.093
same,glycan array binding signal (z-score),[17],0.089
same,glycan array binding signal (z-score),[18],-0.304
same,glycan array binding signal (z-score),[19],-0.27
same,glycan array binding signal (z-score),[20],-0.249
same,glycan array binding signal (z-score),[21],-0.017
same,glycan array binding signal (z-score),[22],0.04
same,glycan array binding signal (z-score),[23],-0.202
same,glycan array binding signal (z-score),[24],-0.095
same,glycan array binding signal (z-score),[25],-0.041
same,glycan array binding signal (z-score),[26],0.02
same,glycan array binding signal (z-score),[27],-0.206
same,glycan array binding signal (z-score),[28],0.025
same,glycan array binding signal (z-score),[29],1.92
same,glycan array binding signal (z-score),[30],-0.285
same,glycan array binding signal (z-score),[31],-0.241
same,glycan array binding signal (z-score),[32],-0.206
same,glycan array binding signal (z-score),[33],-0.092
same,glycan array binding signal (z-score),[34],-0.213
same,glycan array binding signal (z-score),[35],-0.201
same,glycan array binding signal (z-score),[36],-0.174
same,glycan array binding signal (z-score),[37],-0.106
same,glycan array binding signal (z-score),[38],-0.035
same,glycan array binding signal (z-score),[39],-0.124
same,glycan array binding signal (z-score),[40],-0.239
same,glycan array binding signal (z-score),[41],-0.063
same,glycan array binding signal (z-score),[42],0.022
same,glycan array binding signal (z-score),[43],-0.363
same,glycan array binding signal (z-score),[44],-0.2
same,glycan array binding signal (z-score),[45],0.014
same,glycan array binding signal (z-score),[46],0.041
same,glycan array binding signal (z-score),[47],0.085
same,glycan array binding signal (z-score),[48],0.162
same,glycan array binding signal (z-score),[49],0.077
same,glycan array binding signal (z-score),[50],-0.14
same,glycan array binding signal (z-score),[51],-0.243
same,glycan array binding signal (z-score),[52],-0.241
same,glycan array binding signal (z-score),[53],-0.143
same,glycan array binding signal (z-score),[54],-0.153
same,glycan array binding signal (z-score),[55],-0.205
same,glycan array binding signal (z-score),[56],0.038
same,glycan array binding signal (z-score),[57],-0.173
same,glycan array binding signal (z-score),[58],10.4
same,glycan array binding signal (z-score),[59],-0.042
same,glycan array binding signal (z-score),[60],-0.169
